The text below walks through data of the RNAGym collection of RNA variant scans (doi:10.1073/pnas.2313332121).

Variants at the background level are over-represented here. A value given as a limit tells only on which side of the number the result lay.

To fix the notation:
B1: TPR 5TU (parent)
chain: GGAUCUUCUCGAUCUAACAAAAAAGACAAAUCUGCCACAAAGCUUGAGAGCAUCUUCGGAUGCAGAGGCGGCAGCCUUCGGUGGCGCGAUAGCGCCAACGUUCUCAACUAUGACACGCAAAACGCGUGCUCCGUUGAAUGGAGUUUAUCAUG

The variants in the data set derive from B1. Put plainly: polymerase ribozyme fitness, log enrichment relative to wild type (log ratio); higher = more active; in vitro selection for triplet polymerase activity. Put shortly: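 Frozen incubation at −7 °C formed the core of a single, triplicate in vitro selection round applied to PCR-built, transcribed mutant libraries of each subunit of a heterodimeric triplet polymerase ribozyme. Extended constructs were gel-excised, captured with streptavidin beads and amplified by RT-PCR, and input and output libraries were Illumina-sequenced with a filter of ≥10 input reads and ≥1 read per output. Fitness is the logarithm of genotype enrichment relative to wild-type enrichment, with inverse-variance-weighted replicate averaging, and the logarithm is base 2.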
As to GGAUCUUCUCGCUCUAACAAAAAUGACAAAUCUGCCACAAAGCUUGAGCGCAUCUUCGGAUGCAGAGGGGGCAGCCUUCGGUGGCGCGAUAGGGCCAGCGUUCUCAACUAUGACACGCAAAACGCGUGCUCCGUUGAAUGGAGUUUAUCAUG [A12C A24U A49C C69G C93G A98G], the “polymerase ribozyme fitness (log ratio)” value is not above -4.2.

With GGAUCUUCUCGCUCUAACAAAAACGACAAAUCUGCCCCAAAGCUUCAGAGCAUCAUGGGAUGCAGAGGCGGCAGCCUUCGGUGGCGCGAUAGCGCCAGCGUUCUCAACUAUGACAUGCAGAACGCGUGCUCCGUUGAAUGGAGUUUAUCAUG [A12C A24C A37C G46C U55A C57G A98G C116U A120G], the “polymerase ribozyme fitness (log ratio)” value is not above -4.2.

On to GGAUCUUCUCGCUCUAACCAAAAAGACAAAUCUGCCACAAAGCUGGAGAGCAUCUUCGGAUGCAGAGGCGGCAGCCUUCGGUGUCGCGAUAGCGCCAACGUUCUCAACUAUGACACGCAAAACGCGUGCUCCGUUGAAUGGCGUUUAUCAUG [A12C A19C U45G G84U A142C], for which the “polymerase ribozyme fitness (log ratio)” value was not above -4.2.

GGAUCUUCUCGCUCUAACAAAAAUGACAAAUCUGCCACAAAGCUUGAGAGCAUCUUGGGAUGCAGAGGCGGCAGCCUUCGGUGGCGCGAUAGCGCCAACGUUGUCAACUAUGACAUGCAAAACUCGUGCUCCGUUGAAUGGAGUUUAUCAUG [A12C A24U C57G C103G C116U G124U]: the “polymerase ribozyme fitness (log ratio)” value was not above -4.2.

With GGAUCUUCUCGCUCUAACAACAAAGACAAAUCUGCCACAAAGCUUGAGAGCCUCUUCGGAUGCAGAGGCGGCAGCCUUCGGUGGCGAGAUAGCGCCAACGUUCUCAACUAUGACACGGAAAACGCGUGCUCCGUUAAAUGGAGUUUAUCAUG [A12C A21C A52C C87A C118G G136A], the “polymerase ribozyme fitness (log ratio)” value is not above -4.2.

Consider GGAUCUUCUCGCUCUAACAAAAAAGACAUAUCUGCCACAAAGCUUGAGAGCAUCUUCGGAUGCAGGGGCGGCAGCCUUCGGUGGCGCGAUAGCGCCAACGGUCUCAACUAUGACACGCAAAACGCGUGCUGCGUUGAAUGGAGUUUAUCAUG [A12C A29U A66G U101G C131G], for which the “polymerase ribozyme fitness (log ratio)” value is not above -4.2.

With GGAUCUUCUCGCUCUAACAGAAAAGACAAAUCUGCCCCAAAGCUUGAGAGUAUCUUCCGAUGCAGAGGCGGCAGCCUUCGGUGGCGCGAUCGCGCCAACGUUCUCAACUAUGACACGCAAAACGCGUGCUCCGUUGAAUGGAGUUUAUCAUG [A12C A20G A37C C51U G58C A91C], the “polymerase ribozyme fitness (log ratio)” value is not above -4.2.

Regarding GGAUCUUCUCGCUCUAACAAAAAGGACAAAUCUGCCACAAAGCGUGAGAGCAUCUUCGGAUGCAGAGGCGGCAGCCUUCGGUGGUGUGAUAGCGCCAACGUUCUCAACUAUGACACGCAAAACGCGUGCUCCGUUGAAUGGAGUUUAUCAUG [A12C A24G U44G C85U C87U], the “polymerase ribozyme fitness (log ratio)” value was not above -4.2.

With GGAUCUUCUCGCUCUAACAAAAAUGACAAAUCUGCCACAAAGCUUGAGCGCAUCUUCGGAUGCAGAGGCGGCAGCCUUCGGUGGCGCGAUAGCGCCAAUGUUCUCAACUAUGACACGCAAAACGCGUGCUCCGUUGAAUGGAUUUUAUCAUG [A12C A24U A49C C99U G143U], the “polymerase ribozyme fitness (log ratio)” value is not above -4.2.

Take GGAUCUUCUCGCUCUAACAAAAAAGACAUAUCUGCCACAAAGCUUGAGAGCAUCUUCGGAUGCAGAGCCGGCCGCCUUCUGUGCCGCGAUAGCGCCAACGUUCUCAACUAUGACACGCAAAACGCGUGCUCCGUUGAAUGGAGUUUAUCAUG [A12C A29U G68C A73C G80U G84C]: the “polymerase ribozyme fitness (log ratio)” value is not above -4.2.

For the variant GGAUCUUCUCGCUCUAACAAAAAAGACAUAUCUGCCACAAAGCUUGAGAGCAUCUUCGGAUGCAGAGCCGGCCGCCUUCUGUGCCGCGAUAGCGCCAACGUUCUCAACUAUGACACGCAAGACGCGUGCUCCGUUGAAUGGAGUUUAUCAUG [A12C A29U G68C A73C G80U G84C A121G], the “polymerase ribozyme fitness (log ratio)” value is not above -4.2.

As for GGAUCUUCUCGCUCUAACAAAAAAGACUAAUCUGCCACAAAGCUUGAGAGCAUGUUCGGAUGCAGAGGCGGCAGCCUUCGGUGGCGCGAUAGCGCAAACGUUCUCAACUAUGACACGCAAGACGCGUGCUCCUUUGAAUGGAGUUUAUCAUG [A12C A28U C54G C96A A121G G133U], the “polymerase ribozyme fitness (log ratio)” value was not above -4.2.

Turning to GGAUCUUCUCGCUCUAUCAAAAAAGACAAAUCUGCCACAAAGCUUGAGAGCAACUUCGGAUGCAGAGGCGGCAGCCUUCGGUGGCGCGAUAGCGCAAACGUUCUCAACUAUGACACGCAAAACGCGUGCUCCGUUGAAGGGAGUUUAUCAUG [A12C A17U U53A C96A U139G], the “polymerase ribozyme fitness (log ratio)” value is -3.83.

On to GGAUCUUCUCGCUCUAACAAAAAUGACAAAUCUGCCACAAAGCUUGAGAGCAUCUUCGACUGCAGAGGCGGCAGCCUUCGGUGGCGCGAUAGCGCCAACGUUCUCAACUAUGACACGCAAAACGCGUGCUCCGUUGAAUGGCGUUUAUCAUG [A12C A24U G59A A60C A142C], for which the “polymerase ribozyme fitness (log ratio)” value is not above -4.2.

With GGAUCUUCUCGCUCUAACAAAAAAGACGAAUCUGCCACCAAGCUUGAGAGCAUCUUCGGAUGCAGAGGCGGCACCCUUCGGUGGCGCGAUAGCGCCAACGUUCUCAACUAUGACACGCAAAACGCGUGCUCCGUUGAAUGGAGUUUAUCAUG [A12C A28G A39C G74C], the “polymerase ribozyme fitness (log ratio)” value is not above -4.2.

In the case of GGAUCUUCUCGCUCUAACACAAAAGACAAAUCUGCCACAAAGCUUGAGAGCAUCUUUGGAUGCAGAGGCGGCAGCCUUCGGUGGCGCGAUAGCGCCAACGUGCUCUACUAUGACACGCAAAACGCGUGCUCCGUUGAAUGGAGUUUACCAUG [A12C A20C C57U U102G A106U U148C], the “polymerase ribozyme fitness (log ratio)” value is not above -4.2.

GGAUCUUCUCGCUCUAACAAAAAAGUCAAAUCUGCCACAAAGCUUGAGAGCAUCUUCGGAUGCAGCGGCGGCAGCCUUCGGUGACGCGAUAGCGCUGACGUUCUCAACUAUGACACGCAAAACGCGUGCUCCGUUGAAUGGAGUUUAUCAUG [A12C A26U A66C G84A C96U A97G]: the “polymerase ribozyme fitness (log ratio)” value is not above -4.2.

As for GGAUCUUCUCGCUCUAACAAAAAAGUCAAAUCUGCCACACAGCGUGAGAGCAUCUUCGGAUGCAUAGGCGGCAGCCUUCGGUGGCGCGAUAGCGCCAACGUUCUCAGCUAGGACACGCAAAACGCUUGCUCCGUUGAAUGGAGUUUAUCAUG [A12C A26U A40C U44G G65U A107G U111G G126U], the “polymerase ribozyme fitness (log ratio)” value was not above -4.2.

On to GGAUCUUCUCGCUCUAACAAAAAAGACAAUUCUGCCACAAAGCUUGAGAGCAUCUUCGGAUGCAGAGGCGGCAGCCUUCGGUGGCACGAUAGCGCCAAAGUUCUCAACUAUGACACGCAAAACGCGUGCUCCGUUGAAUGGAGUUUAUCAUG [A12C A30U G86A C99A], for which the “polymerase ribozyme fitness (log ratio)” value was not above -4.2.
